Measured values: PubChem BioAssay AID686978 (National Center for Advancing Translational Sciences (NCATS), 2013)
Screen size: about 420,000 compounds; about 64,000 (15%) were called active. Inconclusive results, whose numbers are uncertain, are shown with a selection of clear calls. The call rests on the fitted dose curve; in most records, active means well fitted inhibition curve with a large enough effect; inconclusive means small, poorly fitted or top-dose-only effect; inactive means flat fitted curve, though single readings scatter. Potencies of inconclusive entries are left out as doubtful fits.

Assay: qHTS for Inhibitors of human tyrosyl-DNA phosphodiesterase 1 (TDP1): qHTS in cells in absence of CPT; further: nearly all actives have a fitted effect of over 55% in size
Conditions: DT40 Tdp1-/- hTDP1 cells, no CPT, ATP luminescence, 48 h; series mostly up to 46.2 µM
How it was run: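 Growth kinetics read by CellTiter-Glo luminescence after ≥48 hr at 37 °C. Cells: DT40 Tdp1-/- stably carrying human TDP1, 400 per well, compound exposure in the absence of CPT (DMSO vehicle).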
Potency means the concentration at half of the fitted maximal effect; tags describe the fitted curve by direction and shape.

Row | Structure (SMILES) | Potency
1 | Cc1cc(Cl)ccc1NS(=O)(=O)c1c(C(=O)N2CCC(C)CC2)c(C)n(C)c1C | active: 16.4 µM
2 | CC(C)(C)OC(=O)N[C@@H](C(=O)OC(C)(C)C)c1ccccc1 | inconclusive [inhibitor, single point]
3 | CC(NC(=O)Nc1cccc([N+](=O)[O-])c1)(C(F)(F)F)C(F)(F)F | inconclusive [inhibitor, full curve, poor fit]
4 | CC1CCCN(c2nc3c(-c4ccc(Cl)cc4)nnn3c3ccccc23)C1 (stereo unspecified) | inactive
5 | COC(=O)c1scc(C)c1NC(=O)c1ccc(Cl)cc1 | inconclusive [inhibitor, partial curve]
6 | Cc1sc(NC(=O)/C=C/c2ccc(C(C)C)cc2)c(C#N)c1C | inconclusive [inhibitor, single point]
7 | CSc1nc2ccc(NC(=O)c3cccs3)cc2s1 | inconclusive [inhibitor, single point]
8 | Cc1ccc(N(C(=O)c2sc(C)nc2C)C(C(=O)NCc2ccco2)c2ccccc2)cc1 (stereo unspecified) | inconclusive [inhibitor, single point]
9 | CC(C)c1ccc(COC(=O)CN2C(=O)NC3(CCCCC3C)C2=O)cc1 (stereo unspecified) | inconclusive [inhibitor, partial curve]
10 | Cc1cc2c(cc1S(=O)(=O)Nc1ccc(OC(F)(F)F)cc1)OCC(=O)N2 | inconclusive [inhibitor, single point]
11 | O=C(CSc1nc2ccc(N3CCOCC3)cc2c(=O)n1CCc1ccccc1)NCC1CCCO1 (stereo unspecified) | inconclusive [inhibitor, single point]
12 | CC(C)N(C(=O)CN(C#N)c1nc(N(C)C)nc(N(C)C)n1)c1ccccc1 | inconclusive [inhibitor, partial curve, poor fit]
13 | OC1(c2ccc(OC(F)F)cc2)CSC(=Nc2cccnc2)N1C1CC1 (stereo unspecified) | active: 16.4 µM
14 | O=C(c1cnn2c(C(F)F)cc(C3CC3)nc12)N1CCCC1 | inactive
15 | CCN(CC)S(=O)(=O)c1cc(NC(=O)c2ccccc2OCc2c(C)noc2C)ccc1C | active: 16.4 µM
16 | COc1ccc(NC(=O)CN(c2cc(C)cc(C)c2)S(=O)(=O)c2c(C)noc2C)cc1 | inconclusive [inhibitor, single point]
17 | CCC(COC)NCc1cn(-c2ccc(OC)cc2)nc1-c1cccc(F)c1 (stereo unspecified) | active: 23.1 µM
18 | COc1cc(Cl)c(CN2CCCC(CO)(Cc3ccccc3F)C2)cc1OC (stereo unspecified) | inconclusive [inhibitor, single point]
19 | CSCCNC(=O)c1ccc2nc(Cc3ccccc3F)oc2c1 | inactive
20 | c1ccc(Nc2nc(N3CCNCC3)nc(N3CCOCC3)n2)cc1 | inconclusive [inhibitor, partial curve]
21 | COc1ccc(CCNC(=O)CNC(=O)c2ccc3c(c2)OCO3)cc1OC | inactive
22 | CCc1ccccc1N(C)C(=O)c1cn(-c2cccc(OC)c2)c(=O)c2ccccc12 | active: 16.4 µM
23 | Cc1cccc(CS(=O)(=O)Cc2ccc(C(=O)NCc3cccnc3)o2)c1 | inactive

Row | Structure (SMILES) | Potency
24 | COc1cccc(CC2CC(=O)N(CCc3ccc4c(c3)OCO4)C2=O)c1 (stereo unspecified) | inconclusive [inhibitor, single point]
25 | CCN(CC(=O)Nc1c(F)cccc1F)C(=O)COc1ccc2c(c1)CCC2 | inactive
26 | O=C(Nc1ccccc1Cl)c1cc(C2CCCCN2C(=O)C2CCCCC2)on1 (stereo unspecified) | inconclusive [inhibitor, partial curve, poor fit]
27 | Fc1ccc(Nc2ncnc3ccc(-c4ccoc4)cc23)cc1 | inconclusive [inhibitor, partial curve]
28 | CCOc1cc(CNCCc2ccc(S(N)(=O)=O)cc2)cc(Cl)c1OCc1ccccc1 | inconclusive [inhibitor, single point]
29 | OC[C@@H]1CN(Cc2cccs2)C[C@H](n2cnc3c(N4CCCC4)ncnc32)O1 | inactive
30 | CN(CC(=O)Nc1cccc(F)c1)C(=O)CC1CCCC1 | inactive
31 | Cc1ccc(C(=O)NCCNc2ncc(C(F)(F)F)cc2Cl)cc1[N+](=O)[O-] | inconclusive [inhibitor, single point]
32 | O=C(NCCNc1ccc([N+](=O)[O-])cc1C(F)(F)F)c1ccccc1 | inconclusive [inhibitor, single point]
33 | CC1CC(NS(=O)(=O)c2cccs2)CC(C)(C)C1 (stereo unspecified) | inconclusive [inhibitor, single point]
34 | COc1ccc(C(CNC(=O)COc2ccccc2C)N2CCOCC2)cc1 (stereo unspecified) | active: 16.4 µM
35 | O=C(Nc1ccc(F)cc1F)C1CCN(S(=O)(=O)c2ccc3[nH]c(=O)ccc3c2)CC1 | inactive
36 | CC(=O)c1cccc(NC(=O)COC(=O)[C@@H](NC(=O)OCc2ccccc2)C(C)C)c1 | inactive
37 | O=S(=O)(c1cccc(-c2n[nH]c(=S)o2)c1)N1CCOCC1 | inactive
38 | Cc1ccc(-c2nc(CN3CCCCC3)cc(CN3CCCCC3)c2O)cc1 | inconclusive [inhibitor, single point]
39 | O=C(CCc1nc2cccnc2n1-c1ccccc1)Nc1ccc(Cl)c(Cl)c1 | active: 18.4 µM
40 | S=c1[nH]nc(-c2ccccc2Cl)n1CC1CCCO1 (stereo unspecified) | inactive
41 | O=c1oc2cc(O)ccc2c2oc3cc(O)ccc3c12 | active: 23.1 µM
42 | CCOc1ccccc1NC(=S)N1CCN(c2nc(-c3ccc(F)cc3)cs2)CC1 | active: 14.6 µM
43 | COc1cc(/C=C/C(=O)OCC(=O)N2c3ccccc3CC2C)cc(OC)c1OC (stereo unspecified) | inconclusive [inhibitor, single point]
44 | Nc1c2c(nc3ccccc13)N(c1ccccc1)CC2 | inconclusive [inhibitor, partial curve, poor fit]
45 | c1ccc(-n2ncc3c(NCC4CCCO4)ncnc32)cc1 (stereo unspecified) | inconclusive [inhibitor, single point]
46 | CCc1ccc(OCc2nc(-c3ccc(OC)c(OC)c3)no2)c(Br)c1 | inconclusive [inhibitor, single point]
